Results published in PubChem BioAssay (NCI).
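Method: 48-hour compound exposure of cells in 96-well plates, five concentrations, linear interpolation of endpoints. The concentration for 50% growth inhibition is given as GI50.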 Certain results were filed several times, with different values. The list is limited to them. An entry can have further records. For part of these data: The tests behind the records often covered other concentration ranges, not given here; a value can be the end of its range. For part of these data: Values given together are repeated measurements across runs, samples, wells, individuals or studies. A tag in brackets gives the origin of a value. Letters count within one entry.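 At the TGI there is no net growth.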

Columns and labels:
Experiment in all cases: growth of human tumour cells (NCI), 48 h
[1] = test system: OVCAR-8 ovarian
[2] = test system: SR leukemia
[3] = test system: HL-60(TB) leukemia
[4] = test system: HCC-2998 colon
[5] = test system: OVCAR-3 ovarian
[6] = test system: MCF7 breast
[7] = test system: A498 renal
[8] = test system: RPMI-8226 leukemia
[9] = test system: HCT-116 colon
[10] = test system: SF-295 CNS
[11] = test system: HCT-15 colon
[12] = test system: MALME-3M melanoma
[13] = test system: OVCAR-4 ovarian
[14] = test system: RXF 393 renal
[15] = test system: NCI/ADR-RES ovarian
[16] = test system: UACC-62 melanoma
[17] = test system: UO-31 renal
[18] = test system: CCRF-CEM leukemia
[19] = test system: SK-MEL-5 melanoma
[20] = test system: NCI-H522 lung
[21] = test system: SNB-75 CNS
[22] = test system: SK-MEL-28 melanoma
[23] = test system: UACC-257 melanoma
[24] = test system: CAKI-1 renal
[25] = test system: SK-MEL-2 melanoma
[26] = test system: OVCAR-5 ovarian
[27] = test system: NCI-H23 lung
[28] = test system: SN12C renal
[29] = test system: K-562 leukemia
[30] = test system: NCI-H226 lung
[31] = test system: KM12 colon
[32] = test system: U251 CNS
[33] = test system: COLO 205 colon
[34] = test system: MDA-MB-435
[35] = test system: MDA-MB-231 breast
[36] = test system: MDA-N
[37] = test system: LOX IMVI melanoma
[38] = test system: 786-0 renal
[39] = test system: SK-OV-3 ovarian
[40] = test system: T-47D breast
[41] = test system: MOLT-4 leukemia
[42] = test system: SW-620 colon
[43] = test system: HOP-92 NSCLC
[44] = test system: BT-549 breast
[45] = test system: TK-10 renal
[46] = test system: PC-3 prostate
[47] = test system: ACHN renal
[48] = test system: SNB-19 CNS
[49] = test system: SF-268 CNS
[50] = test system: HOP-62 NSCLC
[51] = test system: A549 NSCLC
[52] = test system: IGROV1 ovarian
[53] = test system: HT29 colon
[54] = test system: DU-145 prostate
[55] = test system: NCI-H460 lung
[56] = test system: EKVX NSCLC

c1ccc(-c2cccc(-c3ccccn3)n2)nc1
TGI [1]: 1.7 µM [sample A] and 31.2 µM [sample B]
TGI [2]: 3.13 µM [sample A] and > 100 µM [sample B]
TGI [3]: 670 nM [sample A] and > 100 µM [sample B]
TGI [4]: 1.23 µM [sample A] and 13.9 µM [sample B]
TGI [5]: 1.39 µM [sample A] and 15.8 µM [sample B]

O=C1C=C2C(=CCOC2O)O1 (stereo not given)
GI50 [6]: 221 nM [sample A, mean of 3 tests] and 2.37 µM [sample B, 1 test]
GI50 [7]: 233 nM [sample A, mean of 2 tests] and 10.4 µM [sample B, 1 test]
TGI [7]: 428 nM [sample A, mean of 2 tests] and 23.3 µM [sample B, 1 test]
TGI [8]: 901 nM [sample A] and 15.1 µM [sample B]
GI50 [3]: 275 nM [sample A, mean of 5 tests] and 3.81 µM [sample B, 1 test]
TGI [3]: 912 nM [sample A, mean of 5 tests] and 10.3 µM [sample B, 1 test]
TGI [4]: 2.2 µM [sample A] and 24.9 µM [sample B]

COC(=O)C12OCC34C(CC5C(C)=C(O)C(=O)CC5(C)C3C(O)C1O)OC(=O)C(OC(=O)C=C(C)C)C24 (stereo not given)
TGI [9]: 318 nM and > 500 µM
TGI [1]: 552 nM and > 500 µM
TGI [10]: 929 nM and > 500 µM
TGI [11]: 2.12 µM and > 500 µM
TGI [12]: 291 nM and > 500 µM
TGI [13]: 1.82 µM and > 500 µM
TGI [14]: 1.08 µM and > 500 µM
TGI [15]: 22.9 µM and > 500 µM
TGI [16]: 331 nM and > 500 µM
TGI [17]: 2.31 µM and > 500 µM
TGI [18]: 12.3 nM and > 500 µM
TGI [19]: 260 nM and > 479 µM
TGI [20]: 655 nM and > 500 µM
TGI [21]: 22.3 nM and 493 µM
TGI [22]: 4.98 µM and > 500 µM
TGI [4]: < 215 nM and > 500 µM
TGI [23]: 543 nM and > 500 µM
TGI [24]: 2.71 µM and > 500 µM
TGI [25]: 413 nM and > 500 µM
TGI [26]: 922 nM and > 500 µM
TGI [27]: 434 nM and > 500 µM
TGI [28]: 780 nM and > 500 µM
GI50 [5]: < 215 nM and > 500 µM
TGI [29]: 236 nM and > 500 µM
TGI [30]: 426 nM and > 500 µM

CC(C)S(=O)(=O)ON1C(=O)c2ccc(N(C)C)cc2C1=O
TGI [3]: 1.45 µM and 19.7 µM

C=C1C(C(O)C[C@H](C)C2O[C@@]3(CCCCO3)CCC2C)O[C@@H]2CCC3(CCC(/C=C/[C@@H](C)C4CC(C)=CC5(O4)O[C@H](C[C@](C)(O)C(=O)O)CCC5O)O3)OC2[C@@H]1O (stereo not given in full)
TGI [9]: 179 nM and 16.5 nM
TGI [31]: 105 nM and 9.6 nM
TGI [32]: > 1 µM and 3.85 nM
TGI [33]: 143 nM and 10.1 nM
TGI [1]: 201 nM and 19.9 nM
TGI [12]: 36.8 nM and 2.41 nM
TGI [2]: > 1 µM and 36.3 nM
TGI [14]: 56.8 nM and 3.8 nM
TGI [7]: 151 nM and 13.8 nM
TGI [34]: 50.4 nM and 2.07 nM
TGI [35]: 140 nM and 10.1 nM
TGI [36]: 130 nM and 4.31 nM
TGI [37]: > 1 µM and 7.98 nM
TGI [28]: > 1 µM and 65.9 nM

CO[C@H]1C[C@@H]2CC[C@@H](C)[C@@](O)(O2)C(=O)C(=O)N2CCCC[C@H]2C(=O)O[C@H]([C@H](C)C[C@@H]2CC[C@@H](O)[C@H](OC)C2)CC(=O)[C@H](C)C=C(C)[C@@H](O)[C@@H](OC)C(=O)[C@H](C)C[C@H](C)/C=C/C=C/C=C1C
TGI [9]: 18.7 µM, 32.8 µM, 234 µM
TGI [31]: 23 µM, 29.6 µM, 330 µM
TGI [32]: 314 µM [mean of 4 tests] and 16.1 µM [mean of 8 tests]
TGI [33]: 21.9 µM, 65.9 µM, 412 µM
TGI [38]: 24.2 µM and > 512 µM
TGI [39]: 132 µM [1 test] and 335 µM [mean of 3 tests] and 23 µM [mean of 7 tests]
TGI [10]: 258 µM [mean of 4 tests] and 60.2 nM [mean of 8 tests] and 12.2 µM [mean of 9 tests]
TGI [40]: 0.282 nM [1 test] and 28.9 µM [mean of 10 tests] and 193 µM [mean of 2 tests]
TGI [41]: 11.3 µM and > 703 µM
TGI [11]: 17.9 µM, 53.3 µM, 267 µM
TGI [42]: 741 µM [1 test] and > 1 mM [mean of 2 tests] and 28.2 µM [mean of 9 tests]
TGI [43]: 21 µM [1 test] and 39.2 nM [mean of 5 tests] and 14.1 µM [mean of 7 tests]
TGI [6]: 28.6 µM [1 test] and 375 µM [mean of 3 tests] and 17 µM [mean of 7 tests] and 52.1 nM [mean of 8 tests]
TGI [44]: 16 µM and 202 µM
TGI [12]: 49 nM, 8.39 µM, 17.9 µM, 170 µM
TGI [2]: 10.4 µM and > 1 mM
TGI [14]: 25.8 µM [1 test] and 159 µM [mean of 4 tests] and 36.5 nM, 15.9 µM [mean of 7 tests]
TGI [7]: 0.0512 nM, 21.5 µM [1 test] and 136 µM [mean of 2 tests] and 34.3 nM [mean of 7 tests] and 15.9 µM [mean of 8 tests]
TGI [15]: 28.2 µM, 117 µM, 376 µM
TGI [16]: 29.7 µM [1 test] and 224 µM [mean of 4 tests] and 17.9 µM [mean of 8 tests]
TGI [17]: 68 nM, 14.9 µM, 32.5 µM, 225 µM
TGI [45]: 53.8 nM, 21.9 µM, > 658 µM
TGI [18]: 40.4 nM, 23.6 µM, 177 µM
TGI [19]: > 1 mM [1 test] and 15.1 µM [mean of 10 tests] and 247 µM [mean of 3 tests]
TGI [46]: 17.9 µM and 304 µM
TGI [47]: 455 µM [mean of 3 tests] and 8.78 µM [mean of 9 tests]
TGI [48]: 95.7 µM [1 test] and 25.2 µM [mean of 10 tests] and 290 µM [mean of 4 tests]
TGI [20]: 86.5 nM, 23.3 µM, 146 µM, 385 µM
TGI [8]: 33.2 µM [1 test] and 265 µM [mean of 3 tests] and 87.3 nM [mean of 7 tests] and 16.9 µM [mean of 8 tests]
TGI [21]: 31.5 µM [1 test] and 127 µM [mean of 4 tests] and 2.79 µM [mean of 8 tests]
TGI [49]: 29.1 µM, 277 µM, 376 µM
TGI [50]: 94.3 nM, 20.4 µM, 278 µM
TGI [22]: 20.6 µM, 26.1 µM, 252 µM
TGI [23]: 474 µM [mean of 3 tests] and 23.1 µM [mean of 8 tests]
TGI [24]: 17.2 µM [mean of 10 tests] and 252 µM [mean of 4 tests] and 55 nM [mean of 8 tests]
TGI [51]: 108 µM [1 test] and 24 µM [mean of 10 tests] and 344 µM [mean of 4 tests]
TGI [52]: 51.3 nM, 15.3 µM, 27.7 µM, 257 µM
TGI [53]: 17.8 µM and 374 µM
TGI [36]: 21.9 µM and 252 µM
TGI [26]: 43.1 µM [1 test] and 368 µM [mean of 4 tests] and 24.2 µM [mean of 7 tests]
TGI [27]: 23.5 µM, 236 µM, 335 µM
TGI [54]: > 376 µM [mean of 2 tests] and 19.8 µM [mean of 8 tests]
TGI [55]: 66.8 µM [1 test] and 354 µM [mean of 4 tests] and 24.1 µM [mean of 9 tests]
TGI [37]: 16.5 µM, 26.1 µM, 358 µM
TGI [56]: 16.9 µM, 48.7 µM, 473 µM
TGI [28]: 30.5 µM [1 test] and 338 µM [mean of 4 tests] and 26.7 µM [mean of 8 tests]
TGI [5]: > 560 µM [mean of 2 tests] and 16.1 µM [mean of 9 tests]
TGI [30]: 947 nM [1 test] and 365 µM [mean of 3 tests] and 22 µM [mean of 5 tests]

NC1(c2ccc(-c3nc4ccn5c(=O)[nH]nc5c4cc3-c3ccccc3)cc2)CCC1
TGI [40]: 4.6 µM [sample A, mean of 2 tests] and 243 nM [sample B, 1 test] and 17.7 µM [sample C, mean of 2 tests]
GI50 [6]: 26.6 nM [sample A, mean of 3 tests] and 181 nM [sample B, mean of 2 tests] and 485 nM [sample C, mean of 2 tests]
GI50 [12]: 222 nM [sample A, mean of 2 tests] and 3.6 µM [sample B, 1 test] and 11.6 µM [sample C, mean of 2 tests]

C/C(=C\COc1ccc2ccc(=O)oc2c1)C1=CC(=O)C(C)(C)O1
TGI [1]: 4.91 µM and 50.4 µM
TGI [29]: 5.25 µM and 77.7 µM
